Patent US20110098211A1 (Pieris, published 2011)

B1: tear lipocalin mutein S244.2-H08 (designed binder)
chain: ASDEEIQDVSGTWYLKAMTVDTQMPLSLYVSVTPITLTTLEGGSLEATVTLNQIGRSQEVRAVLEKTDEPGKYTAYGGAHVAYISRSHVKDHYIFYSEGDTWGGPVPGVWLVGRDPKNNLEALEDFEKAAGARGLSTESILIPRQSETSSPG
B2: S244.2-H08_D95C (designed binder)
chain: ASDEEIQDVSGTWYLKAMTVDTQMPLSLYVSVTPITLTTLEGGSLEATVTLNQIGRSQEVRAVLEKTDEPGKYTAYGGAHVAYISRSHVKCHYIFYSEGDTWGGPVPGVWLVGRDPKNNLEALEDFEKAAGARGLSTESILIPRQSETSSPG
notes: Cys variant of S244.2-H08 with a free cysteine; also called S244.2-H08 Asp 95 -> Cys
B3: S244.2-H08_K121C (designed binder)
chain: ASDEEIQDVSGTWYLKAMTVDTQMPLSLYVSVTPITLTTLEGGSLEATVTLNQIGRSQEVRAVLEKTDEPGKYTAYGGAHVAYISRSHVKDHYIFYSEGDTWGGPVPGVWLVGRDPCNNLEALEDFEKAAGARGLSTESILIPRQSETSSPG
notes: Cys variant of S244.2-H08 with a free cysteine; also called S244.2-H08 Lys 121 -> Cys
B4: S244.2-H08_N123C (designed binder)
chain: ASDEEIQDVSGTWYLKAMTVDTQMPLSLYVSVTPITLTTLEGGSLEATVTLNQIGRSQEVRAVLEKTDEPGKYTAYGGAHVAYISRSHVKDHYIFYSEGDTWGGPVPGVWLVGRDPKNCLEALEDFEKAAGARGLSTESILIPRQSETSSPG
notes: Cys variant of S244.2-H08 with a free cysteine; also called S244.2-H08 Asn 123 -> Cys
B5: S244.2-H08_R90C (designed binder)
chain: ASDEEIQDVSGTWYLKAMTVDTQMPLSLYVSVTPITLTTLEGGSLEATVTLNQIGRSQEVRAVLEKTDEPGKYTAYGGAHVAYISCSHVKDHYIFYSEGDTWGGPVPGVWLVGRDPKNNLEALEDFEKAAGARGLSTESILIPRQSETSSPG
notes: Cys variant of S244.2-H08 with a free cysteine; also called S244.2-H08 Arg 90 -> Cys
B6: S244.2-H08_T40C (designed binder)
chain: ASDEEIQDVSGTWYLKAMTVDTQMPLSLYVSVTPICLTTLEGGSLEATVTLNQIGRSQEVRAVLEKTDEPGKYTAYGGAHVAYISRSHVKDHYIFYSEGDTWGGPVPGVWLVGRDPKNNLEALEDFEKAAGARGLSTESILIPRQSETSSPG
notes: Cys variant of S244.2-H08 with a free cysteine; also called S244.2-H08 Thr 40 -> Cys
B7: S244.2-H08_V93C (designed binder)
chain: ASDEEIQDVSGTWYLKAMTVDTQMPLSLYVSVTPITLTTLEGGSLEATVTLNQIGRSQEVRAVLEKTDEPGKYTAYGGAHVAYISRSHCKDHYIFYSEGDTWGGPVPGVWLVGRDPKNNLEALEDFEKAAGARGLSTESILIPRQSETSSPG
notes: The position is counted on mature human tear lipocalin and may be shifted on the entry if its N-terminus is truncated; also called S244.2-H08 Val 93 -> Cys
B8: tear lipocalin mutein S261.1-J01 (designed binder)
chain: ASDEEIQDVSGTWYLKAMTVDTQDPLSLYVSVTPLTLTTLEGGNLEAMVTLNQVGRSQEVLAVLEKTDEPGKYTAYGGAHVAYITRSHVKDHYIFYSEGDTWGGPVPGVWLVGRDPKNNLEALEDFEKAAGARGLSTESILIPRQSETSSPG
B9: tear lipocalin mutein S244.4-N05 (designed binder)
chain: ASDEEIQDVSGTWYLKAMTVDPQMPLSLYVSVTPMTLTTLEGGNLEAEVTLNQVGRSQEVRAVLEKTDEPGKYTAYGGAHVAYITRSHVKDHYIFYSEGDTWGGPVPGVWLVGRDPKNNLEALEDFEKAAGARGLSTESILIPRQSETSSPG
notes: Purified via Strep-tag
B10: tear lipocalin mutein S244.5-J05 (designed binder)
chain: ASDEEIQDVSGTWYLKAMTVDTQMPLSLYVSVTPMTLTTLEGGNLEAEVTLNQIGRSQEVRAVLEKTDEPGRYTAYGGAHVAYITRSHVKDHYIFYSEGDTWGGPVPGVWLVGRDPKNNLEALEDFEKAAGARGLSTESILIPRQSETSSPG
B11: tear lipocalin mutein S244.8-I20 (designed binder)
chain: ASDEEIQDVSGTWYLKAMTVDTQMPLSLYVSVTPITLTALEGGNLEAEVTLNQVGRSQEVKAVLEKTDEPGRYTAYGGAHVAYITRSHVKDHYIFYSEGDTWGGPVPGVWLVGRDPKNNLEALEDFEKAAGARGLSTESILIPRQSETSSPG
notes: Purified via Strep-tag
B12: tear lipocalin mutein S261.1-L17 (designed binder)
chain: ASDEEIQDVSGTWYLKAMTVDTQDPLSLYVSVSPITLTTLEGGNLEATVTLNQIGRSQEVLAVLEKTDEPGKYTAYGGAHVAYIHRSHVKDHYIFYSEGDTWGGPVPGVWLVGRDPKNNLEALEDFEKAAGARGLSTESILIPRQSETSSPG
B13: affinity-maturated tear lipocalin mutein K06 (designed binder)
chain: ASDEEIQDVSGTWYLKAMTVDTQDALSLYVSVSPITLTTLEGGNLEATVTLNQIGRSQEVLAVLEKTDEPGKYTAYGGAHVAYIHRSHVKDHYIFYSEGDTWGGPVPGVWLVGRDPKNNLEALEDFEKAAGARGLSTESILIPRQSETSSPG
B14: affinity-maturated tear lipocalin mutein K15 (designed binder)
chain: ASDEEIQDVSGTWYLKAMTVDTDDPLSLYVSVSPITLTTLEGGNLEATVTLNQIGRSQEVLAVLEKTDEPGKYTAYGGAHVAYIHRSHVKDHYIFYSEGDTWGGPVPGVWLVGRDPKNNLEALEDFEKAAGARGLSTESILIPRQSETSSPG
B15: affinity-maturated tear lipocalin mutein K22 (designed binder)
chain: ASDEEIQDVSGTWYLKAMTVDLQDPLSLYVSVSPITLTTLEGGNLEATVTLNQIGRSQEVLAVLEKTDEPGKYTAYGGAHVAYIHRSHVKDHYIFYSEGDTWGGPVPGVWLVGRDPKNNLEALEDFEKAAGARGLSTESILIPRQSETSSPG
B16: affinity-maturated tear lipocalin mutein L03 (designed binder)
chain: ASDEEIQDVSGTWYLKAMTVDTQDCLSLYVSVSPITLTTLEGGNLEATVTLNQIGRSQEVLAVLEKTDEPGKYTAYGGAHVAYIHRSHVKDHYIFYSEGDTWGGPVPGVWLVGRDPKNNLEALEDFEKAAGARGLSTESILIPRQSETSSPG
B17: affinity-maturated tear lipocalin mutein M02 (designed binder)
chain: ASDEEIQDVSGTWYLKAMTVDAQDPLSLYVSVSPITLTTLEGGNLEATVTLNQIGRSQEVLAVLEKTDEPGKYTAYGGAHVAYIHRSHVKDHYIFYSEGDTWGGPVPGVWLVGRDPKNNLEALEDFEKAAGARGLSTESILIPRQSETSSPG
B18: affinity-maturated tear lipocalin mutein O07 (designed binder)
chain: ASDEEIQDVSGTWYLKAMTVDTQDLLSLYVSVSPITLTTLEGGNLEATVTLNQIGRSQEVLAVLEKTDEPGKYTAYGGAHVAYIHRSHVKDHYIFYSEGDTWGGPVPGVWLVGRDPKNNLEALEDFEKAAGARGLSTESILIPRQSETSSPG
B19: affinity-maturated tear lipocalin mutein O24 (designed binder)
chain: ASDEEIQDVSGTWYLKAMTVDEQDPLSLYVSVSPITLTTLEGGNLEATVTLNQIGRSQEVLAVLEKTDEPGKYTAYGGAHVAYIHRSHVKDHYIFYSEGDTWGGPVPGVWLVGRDPKNNLEALEDFEKAAGARGLSTESILIPRQSETSSPG
B20: S275.3-L03 (Dimer) (designed binder)
chain 1: ASDEEIQDVSGTWYLKAMTVDTQDCLSLYVSVSPITLTTLEGGNLEATVTLNQIGRSQEVLAVLEKTDEPGKYTAYGGAHVAYIHRSHVKDHYIFYSEGDTWGGPVPGVWLVGRDPKNNLEALEDFEKAAGARGLSTESILIPRQSETSSPG
chain 2: ASDEEIQDVSGTWYLKAMTVDTQDCLSLYVSVSPITLTTLEGGNLEATVTLNQIGRSQEVLAVLEKTDEPGKYTAYGGAHVAYIHRSHVKDHYIFYSEGDTWGGPVPGVWLVGRDPKNNLEALEDFEKAAGARGLSTESILIPRQSETSSPG
modifications: Dimer probably joined by a disulfide between the new Cys 29 (piece position 25) of the two chains; the patent does not say so.
notes: The monomer row is written under m38; also called P29C

molecular target: T1, c-Met receptor-Fc (R&D Systems) (human, UniProt P08581 25-932); experiment: SPR as in Example 7 (c-Met receptor-Fc on chip); column head 'Affinity [nM]'
T1 construct: range 1-932; Bought from R&D Systems; also called c-Met receptor-Fe; not shown: Fc region of a human IgG

B1 and B2 are within 1.5-fold of each other in Kd: 8 nM for the first, 11 nM for the second.

Compared with B3, B4 is 1.8-fold higher in Kd: 8 nM for the first, 14 nM for the second. The first binds more tightly here.

B5 and B6 are within 1.5-fold of each other in Kd: 35 nM for the first, 40 nM for the second.

B7 showed a Kd of 21 nM.

molecular target: T1, c-Met receptor-Fc (R&D Systems); experiment: SPR as in Example 7 (c-Met receptor-Fc on CM5 chip)
T1 sequence (P08581 25-932, form in doubt): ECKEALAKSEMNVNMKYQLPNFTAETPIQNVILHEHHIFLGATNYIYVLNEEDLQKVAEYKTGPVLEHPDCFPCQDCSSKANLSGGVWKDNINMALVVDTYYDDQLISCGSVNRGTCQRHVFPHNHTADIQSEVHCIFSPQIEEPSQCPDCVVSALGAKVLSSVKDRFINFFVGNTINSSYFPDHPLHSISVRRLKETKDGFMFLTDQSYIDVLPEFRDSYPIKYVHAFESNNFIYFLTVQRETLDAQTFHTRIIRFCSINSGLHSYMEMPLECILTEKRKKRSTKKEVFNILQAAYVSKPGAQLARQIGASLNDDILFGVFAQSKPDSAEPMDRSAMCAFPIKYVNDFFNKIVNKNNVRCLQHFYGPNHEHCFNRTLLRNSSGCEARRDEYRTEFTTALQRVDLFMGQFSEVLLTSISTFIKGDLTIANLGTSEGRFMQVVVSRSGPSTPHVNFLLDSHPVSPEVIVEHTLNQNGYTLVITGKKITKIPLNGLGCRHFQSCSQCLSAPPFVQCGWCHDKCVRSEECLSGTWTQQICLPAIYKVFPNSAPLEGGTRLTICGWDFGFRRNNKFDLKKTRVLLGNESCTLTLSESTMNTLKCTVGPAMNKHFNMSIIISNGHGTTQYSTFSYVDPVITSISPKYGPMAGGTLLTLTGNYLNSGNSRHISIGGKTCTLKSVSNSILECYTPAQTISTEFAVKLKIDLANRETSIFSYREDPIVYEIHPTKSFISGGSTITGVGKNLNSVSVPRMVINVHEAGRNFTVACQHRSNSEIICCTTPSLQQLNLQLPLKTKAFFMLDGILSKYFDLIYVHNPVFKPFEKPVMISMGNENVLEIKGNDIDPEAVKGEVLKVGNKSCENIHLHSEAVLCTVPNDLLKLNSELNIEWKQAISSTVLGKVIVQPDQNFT

Binder B8 has a Kd of 2.3 nM.

molecular target: T1, c-Met receptor-Fc (R&D Systems); experiment: SPR (BIAcore), c-Met receptor-Fc immobilized on CM5 chip, mutein injected; mean of at least 3 measurements

Compared with B1, B9 is 2.4-fold higher in Kd: 9.9 nM for the first, 24 nM for the second. The first binds more tightly here.

B10 and B11 are within 1.5-fold of each other in Kd: 15.5 nM for the first, 23 nM for the second.

molecular target: T1, c-Met receptor-Fc (R&D Systems); experiment: ELISA, mutein titrated on c-Met receptor-Fc captured via anti-human IgG-Fc mAb, in presence of 300 nM HGF as competitor

B12 gave a Kd of 2.5 nM.

molecular target: c-Met (construct used in Example 21 / FIG. 15 not stated) (UniProt P08581 25-932, limits assumed); experiment: drawn table of Kon, Koff and KD; method not named in Example 21 (column heads as in the SPR Table IV)

B12 and B13 are within 1.5-fold of each other in Kd: 5.8 nM for the first, 6 nM for the second.

Compared with B14, B15 is 1.6-fold higher in Kd: 2.4 nM for the first, 3.9 nM for the second. The first binds more tightly here.

Compared with B16, B17 is 1.7-fold higher in Kd: 1.8 nM for the first, 3 nM for the second. The first binds more tightly here.

Compared with B18, B19 is 2.3-fold lower in Kd: 6.3 nM for the first, 2.7 nM for the second.

B20 showed a Kd of 0.97 nM.

First: B13
Second: B14
The koff of the first is 2.1-fold higher: 8.78e-05 s⁻¹ for the first, 4.1e-05 s⁻¹ for the second.

Compared with B15, B16 is 2.3-fold lower in koff: 6.99e-05 s⁻¹ for the first, 3.02e-05 s⁻¹ for the second.

Going from B17 to B18, the koff rises from 5.7e-05 s⁻¹ to 9.1e-05 s⁻¹ (1.6-fold).

First: B19
Second: B20
The koff of the first is 3.1-fold higher: 5.21e-05 s⁻¹ for the first, 1.66e-05 s⁻¹ for the second.

B13 and B14 are within 1.5-fold of each other in kon: 14700 M⁻¹ s⁻¹ for the first, 17600 M⁻¹ s⁻¹ for the second.

B15 and B16 are within 1.5-fold of each other in kon: 17800 M⁻¹ s⁻¹ for the first, 16500 M⁻¹ s⁻¹ for the second.

B17 and B18 are within 1.5-fold of each other in kon: 19400 M⁻¹ s⁻¹ for the first, 14500 M⁻¹ s⁻¹ for the second.

B19 and B20 are within 1.5-fold of each other in kon: 19700 M⁻¹ s⁻¹ for the first, 17100 M⁻¹ s⁻¹ for the second.

molecular target: T1, c-Met receptor-Fc (R&D Systems); experiment: ELISA, mutein titrated on c-Met receptor-Fc captured via anti-human IgG-Fc mAb, in absence of HGF

In the case of B12, the Kd is reported as 1.9 nM.
